Measurements published in article PMC12820563.
This is one part of the list. The list includes weakly bound sequences.

Target: T1, MBP-FoxP3dN (UniProt Q99JB6)
T1 sequence: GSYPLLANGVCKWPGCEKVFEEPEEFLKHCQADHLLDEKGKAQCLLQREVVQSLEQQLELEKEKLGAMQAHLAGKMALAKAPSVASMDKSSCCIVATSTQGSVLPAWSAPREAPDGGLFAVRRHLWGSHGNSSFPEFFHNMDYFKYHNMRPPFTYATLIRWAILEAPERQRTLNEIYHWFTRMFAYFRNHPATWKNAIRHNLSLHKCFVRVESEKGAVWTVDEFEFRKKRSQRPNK
Assay: PD-seq (MBP pull-down with sequencing)
Settings: 20 mM Tris-HCl pH 7.5, 100 mM NaCl, 1.5 mM MgCl2, 0.4 uM protein, 0.1 uM dsDNA library, 30 min, room temperature, amylose pull-down; high values mean tight binding; double strand, one strand shown

| Sequence | binding signal (RPM ratio (pull-down/input)) |
| --- | --- |
| GATGATTGTTCTCCCAGCTGATGAATTTTGTGGATCGAGTAAACAAATTTTCCTAATCTTTCTGTTCAAGCGCCATCTAC | 2.73 |
| GATGATTGTTCTCCCAGCTGATGAATTATATATGTCGAGTAAACAAATTTTCCTAATCTTTCTGTTCAAGCGCCATCTAC | 1.27 |
| GATGATTGTTCTCCCAGCTGATGAATTGAATTGATCGAGTAAACAAATTTTCCTAATCTTTCTGTTCAAGCGCCATCTAC | 0.917 |
| GATGATTGTTCTCCCAGCTGATGAATTGCGATAATCGAGTAAACAAATTTTCCTAATCTTTCTGTTCAAGCGCCATCTAC | 0.749 |
| GATGATTGTTCTCCCAGCTGATGAATTACGGAAATCGAGTAAACAAATTTTCCTAATCTTTCTGTTCAAGCGCCATCTAC | 0.328 |
| GATGATTGTTCTCCCAGCTGATGAATTACCGCACTCGAGTAAACAAATTTTCCTAATCTTTCTGTTCAAGCGCCATCTAC | 0.569 |
| GATGATTGTTCTCCCAGCTGATGAATTGACGATTTCGAGTAAACAAATTTTCCTAATCTTTCTGTTCAAGCGCCATCTAC | 0.415 |
| GATGATTGTTCTCCCAGCTGATGAATTTACCCGCTCGAGTAAACAAATTTTCCTAATCTTTCTGTTCAAGCGCCATCTAC | 0.306 |
| GATGATTGTTCTCCCAGCTGATGAATTTCGAGGATCGAGTAAACAAATTTTCCTAATCTTTCTGTTCAAGCGCCATCTAC | 0.273 |
| GATGATTGTTCTCCCAGCTGATGAATTGAGGACGTCGAGTAAACAAATTTTCCTAATCTTTCTGTTCAAGCGCCATCTAC | 0.248 |
| GATGATTGTTCTCCCAGCTGATGAATTTCTCCGGTCGAGTAAACAAATTTTCCTAATCTTTCTGTTCAAGCGCCATCTAC | 0.153 |
| GATGATTGTTCTCCCAGCTGATGAATTTAGGGACTCGAGTAAACAAATTTTCCTAATCTTTCTGTTCAAGCGCCATCTAC | 0.524 |
| GATGATTGTTCTCCCAGCTGATGAATTATTCATCTCGAGTAAACAAATTTTCCTAATCTTTCTGTTCAAGCGCCATCTAC | 0.399 |
| GATGATTGTTCTCCCAGCTGATGAATTAGCGAAGTCGAGTAAACAAATTTTCCTAATCTTTCTGTTCAAGCGCCATCTAC | 0.227 |
| GATGATTGTTCTCCCAGCTGATGAATTAACATTATCGAGTAAACAAATTTTCCTAATCTTTCTGTTCAAGCGCCATCTAC | 0.644 |
| GATGATTGTTCTCCCAGCTGATGAATTTTCCTACTCGAGTAAACAAATTTTCCTAATCTTTCTGTTCAAGCGCCATCTAC | 0.244 |
| GATGATTGTTCTCCCAGCTGATGAATTACTGTGTTCGAGTAAACAAATTTTCCTAATCTTTCTGTTCAAGCGCCATCTAC | 0.701 |
| GATGATTGTTCTCCCAGCTGATGAATTGGGTGGATCGAGTAAACAAATTTTCCTAATCTTTCTGTTCAAGCGCCATCTAC | 0.423 |
| GATGATTGTTCTCCCAGCTGATGAATTTTATATGTCGAGTAAACAAATTTTCCTAATCTTTCTGTTCAAGCGCCATCTAC | 1.35 |
| GATGATTGTTCTCCCAGCTGATGAATTGCCGAGCTCGAGTAAACAAATTTTCCTAATCTTTCTGTTCAAGCGCCATCTAC | 0.36 |
| GATGATTGTTCTCCCAGCTGATGAATTTGAGATTTCGAGTAAACAAATTTTCCTAATCTTTCTGTTCAAGCGCCATCTAC | 0.531 |

| Sequence | binding signal (RPM ratio (pull-down/input)) |
| --- | --- |
| GATGATTGTTCTCCCAGCTGATGAATTCCCGTCCTCGAGTAAACAAATTTTCCTAATCTTTCTGTTCAAGCGCCATCTAC | 0.283 |
| GATGATTGTTCTCCCAGCTGATGAATTAATGAGCTCGAGTAAACAAATTTTCCTAATCTTTCTGTTCAAGCGCCATCTAC | 0.416 |
| GATGATTGTTCTCCCAGCTGATGAATTCTCCTTCTCGAGTAAACAAATTTTCCTAATCTTTCTGTTCAAGCGCCATCTAC | 0.284 |
| GATGATTGTTCTCCCAGCTGATGAATTGCATCTGTCGAGTAAACAAATTTTCCTAATCTTTCTGTTCAAGCGCCATCTAC | 3.85 |
| GATGATTGTTCTCCCAGCTGATGAATTGCTCGTTTCGAGTAAACAAATTTTCCTAATCTTTCTGTTCAAGCGCCATCTAC | 0.594 |
| GATGATTGTTCTCCCAGCTGATGAATTTGAGGAGTCGAGTAAACAAATTTTCCTAATCTTTCTGTTCAAGCGCCATCTAC | 0.291 |
| GATGATTGTTCTCCCAGCTGATGAATTAATAAGGTCGAGTAAACAAATTTTCCTAATCTTTCTGTTCAAGCGCCATCTAC | 0.275 |
| GATGATTGTTCTCCCAGCTGATGAATTCGATGAGTCGAGTAAACAAATTTTCCTAATCTTTCTGTTCAAGCGCCATCTAC | 0.641 |
| GATGATTGTTCTCCCAGCTGATGAATTCCAAAAATCGAGTAAACAAATTTTCCTAATCTTTCTGTTCAAGCGCCATCTAC | 0.174 |
| GATGATTGTTCTCCCAGCTGATGAATTACCGCAGTCGAGTAAACAAATTTTCCTAATCTTTCTGTTCAAGCGCCATCTAC | 0.486 |
| GATGATTGTTCTCCCAGCTGATGAATTGCGAGAGTCGAGTAAACAAATTTTCCTAATCTTTCTGTTCAAGCGCCATCTAC | 0.493 |
| GATGATTGTTCTCCCAGCTGATGAATTTTGCTGGTCGAGTAAACAAATTTTCCTAATCTTTCTGTTCAAGCGCCATCTAC | 1.93 |
| GATGATTGTTCTCCCAGCTGATGAATTGGTGTTATCGAGTAAACAAATTTTCCTAATCTTTCTGTTCAAGCGCCATCTAC | 2.04 |
| GATGATTGTTCTCCCAGCTGATGAATTCGGTTTGTCGAGTAAACAAATTTTCCTAATCTTTCTGTTCAAGCGCCATCTAC | 3.22 |
| GATGATTGTTCTCCCAGCTGATGAATTTTCATTCTCGAGTAAACAAATTTTCCTAATCTTTCTGTTCAAGCGCCATCTAC | 0.385 |
| GATGATTGTTCTCCCAGCTGATGAATTCAGTATCTCGAGTAAACAAATTTTCCTAATCTTTCTGTTCAAGCGCCATCTAC | 3.25 |
| GATGATTGTTCTCCCAGCTGATGAATTAGGGGCCTCGAGTAAACAAATTTTCCTAATCTTTCTGTTCAAGCGCCATCTAC | 0.504 |
| GATGATTGTTCTCCCAGCTGATGAATTGGCAGATTCGAGTAAACAAATTTTCCTAATCTTTCTGTTCAAGCGCCATCTAC | 0.278 |
| GATGATTGTTCTCCCAGCTGATGAATTGGGTTGTTCGAGTAAACAAATTTTCCTAATCTTTCTGTTCAAGCGCCATCTAC | 2.43 |
| GATGATTGTTCTCCCAGCTGATGAATTCTAGCGTTCGAGTAAACAAATTTTCCTAATCTTTCTGTTCAAGCGCCATCTAC | 1.13 |
| GATGATTGTTCTCCCAGCTGATGAATTGAACCAGTCGAGTAAACAAATTTTCCTAATCTTTCTGTTCAAGCGCCATCTAC | 0.368 |

| Sequence | binding signal (RPM ratio (pull-down/input)) |
| --- | --- |
| GATGATTGTTCTCCCAGCTGATGAATTCAGACGATCGAGTAAACAAATTTTCCTAATCTTTCTGTTCAAGCGCCATCTAC | 0.222 |
| GATGATTGTTCTCCCAGCTGATGAATTCAAGTAGTCGAGTAAACAAATTTTCCTAATCTTTCTGTTCAAGCGCCATCTAC | 0.369 |
| GATGATTGTTCTCCCAGCTGATGAATTTGTCACCTCGAGTAAACAAATTTTCCTAATCTTTCTGTTCAAGCGCCATCTAC | 5.41 |
| GATGATTGTTCTCCCAGCTGATGAATTGAATGATTCGAGTAAACAAATTTTCCTAATCTTTCTGTTCAAGCGCCATCTAC | 0.737 |
| GATGATTGTTCTCCCAGCTGATGAATTATCAATCTCGAGTAAACAAATTTTCCTAATCTTTCTGTTCAAGCGCCATCTAC | 0.36 |
| GATGATTGTTCTCCCAGCTGATGAATTTGCCGGGTCGAGTAAACAAATTTTCCTAATCTTTCTGTTCAAGCGCCATCTAC | 0.457 |
| GATGATTGTTCTCCCAGCTGATGAATTGTTCGATTCGAGTAAACAAATTTTCCTAATCTTTCTGTTCAAGCGCCATCTAC | 0.408 |
| GATGATTGTTCTCCCAGCTGATGAATTTTATACGTCGAGTAAACAAATTTTCCTAATCTTTCTGTTCAAGCGCCATCTAC | 0.442 |
| GATGATTGTTCTCCCAGCTGATGAATTCTCTGTTTCGAGTAAACAAATTTTCCTAATCTTTCTGTTCAAGCGCCATCTAC | 0.335 |
| GATGATTGTTCTCCCAGCTGATGAATTGCTGGGGTCGAGTAAACAAATTTTCCTAATCTTTCTGTTCAAGCGCCATCTAC | 0.424 |
| GATGATTGTTCTCCCAGCTGATGAATTATATTATTCGAGTAAACAAATTTTCCTAATCTTTCTGTTCAAGCGCCATCTAC | 4.44 |
| GATGATTGTTCTCCCAGCTGATGAATTAATTTGCTCGAGTAAACAAATTTTCCTAATCTTTCTGTTCAAGCGCCATCTAC | 3.03 |
| GATGATTGTTCTCCCAGCTGATGAATTACTTAGATCGAGTAAACAAATTTTCCTAATCTTTCTGTTCAAGCGCCATCTAC | 0.326 |
| GATGATTGTTCTCCCAGCTGATGAATTGTCTACTTCGAGTAAACAAATTTTCCTAATCTTTCTGTTCAAGCGCCATCTAC | 0.906 |
| GATGATTGTTCTCCCAGCTGATGAATTATGTCTATCGAGTAAACAAATTTTCCTAATCTTTCTGTTCAAGCGCCATCTAC | 2.44 |
| GATGATTGTTCTCCCAGCTGATGAATTAAGCTAGTCGAGTAAACAAATTTTCCTAATCTTTCTGTTCAAGCGCCATCTAC | 0.894 |
| GATGATTGTTCTCCCAGCTGATGAATTACAGCTCTCGAGTAAACAAATTTTCCTAATCTTTCTGTTCAAGCGCCATCTAC | 0.501 |
| GATGATTGTTCTCCCAGCTGATGAATTCCGACCATCGAGTAAACAAATTTTCCTAATCTTTCTGTTCAAGCGCCATCTAC | 0.529 |
| GATGATTGTTCTCCCAGCTGATGAATTTAATGGATCGAGTAAACAAATTTTCCTAATCTTTCTGTTCAAGCGCCATCTAC | 0.446 |
| GATGATTGTTCTCCCAGCTGATGAATTGGGTCTCTCGAGTAAACAAATTTTCCTAATCTTTCTGTTCAAGCGCCATCTAC | 0.461 |
| GATGATTGTTCTCCCAGCTGATGAATTGCGAACATCGAGTAAACAAATTTTCCTAATCTTTCTGTTCAAGCGCCATCTAC | 0.776 |
